# The supplement of paper PMC3334620
# In all, about 33,000 sequences were measured (“E-score (-0.5 to 0.5)”: median about -0.012, highest 2% from about 0.29 on). The list shows a part of the results.
# Target: T1, Ybr033w (UniProt P38073)
# T1 sequence: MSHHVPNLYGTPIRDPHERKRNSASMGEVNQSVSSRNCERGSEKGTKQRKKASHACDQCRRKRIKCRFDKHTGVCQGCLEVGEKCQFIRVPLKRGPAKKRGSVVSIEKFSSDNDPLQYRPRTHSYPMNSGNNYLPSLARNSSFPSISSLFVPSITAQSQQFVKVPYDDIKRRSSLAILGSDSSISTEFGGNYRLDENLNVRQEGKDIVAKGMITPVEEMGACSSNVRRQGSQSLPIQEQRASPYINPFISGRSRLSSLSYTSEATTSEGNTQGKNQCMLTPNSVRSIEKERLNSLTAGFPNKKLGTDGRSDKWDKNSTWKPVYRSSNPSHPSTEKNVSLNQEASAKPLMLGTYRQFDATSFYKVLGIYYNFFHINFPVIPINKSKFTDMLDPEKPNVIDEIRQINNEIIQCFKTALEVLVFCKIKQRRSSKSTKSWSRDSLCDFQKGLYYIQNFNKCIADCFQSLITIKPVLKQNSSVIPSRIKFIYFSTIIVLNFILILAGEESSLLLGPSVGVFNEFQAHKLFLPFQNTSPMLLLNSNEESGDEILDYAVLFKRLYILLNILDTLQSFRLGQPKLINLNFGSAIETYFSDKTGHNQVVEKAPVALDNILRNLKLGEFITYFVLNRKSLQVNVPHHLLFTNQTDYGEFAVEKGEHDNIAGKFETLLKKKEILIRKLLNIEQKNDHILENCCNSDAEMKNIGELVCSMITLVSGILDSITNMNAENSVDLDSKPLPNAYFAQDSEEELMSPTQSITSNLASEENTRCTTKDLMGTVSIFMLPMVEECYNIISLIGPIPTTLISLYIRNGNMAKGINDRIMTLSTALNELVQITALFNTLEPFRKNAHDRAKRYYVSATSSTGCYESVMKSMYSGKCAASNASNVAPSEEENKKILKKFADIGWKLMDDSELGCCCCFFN
# Assay: PBM E-score (8-mer binding enrichment) (E-score (-0.5 to 0.5)); higher = stronger / more preferred TF binding; most listed sequences are background and not binding sites
# Settings: protein concentration: 200 nM; construct: GST-full length
# How it was run: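 PURExpress in vitro transcription/translation supplied GST-tagged yeast transcription factors, either full-length or DNA-binding domain. Applied at about 100-200 nM to universal all-10-mer Agilent arrays double-stranded by primer extension, the bound protein was detected with fluorescent anti-GST. E-scores, modified Wilcoxon-Mann-Whitney statistics, were given by the Universal PBM Analysis Suite to ungapped eight-base words pooled with their reverse complements after masliner normalisation.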
row,Sequence,PBM E-score
1,GATAGAAC,0.172
2,ATTGCTGA,0.0669
3,AGATCTTC,0.137
4,ATTGGTTG,0.0397
5,AAGAACGC,0.0624
6,CTCGAGCC,-0.082
7,CCCGGGGA,-0.287
8,ATAAAAAT,0.193
9,CTGTAATA,0.0757
10,ATTTACAC,0.00495
11,CCCCATTA,-0.256
12,GAATGTAC,-0.0862
13,CCGGCCAG,-0.112
14,TAACACAA,0.202
15,AGACAAGA,0.0778
16,AACGTCCT,0.00378
17,AATTGCGA,-0.0541
18,CGGTAGAC,-0.0176
19,AATATCAA,0.233
20,ACAGGTCC,-0.198
21,AGCTTGGA,-0.101
22,GAAAGTTC,-0.0203
23,GAAGATTC,0.165
24,AAGAGTTC,0.0919
25,GATCGAAA,0.208

row,Sequence,PBM E-score
1,TCCTTCGA,-0.0872
2,ATAAGGTA,0.0435
3,GTACTCTA,-0.0777
4,GCTGCCGA,-0.159
5,CCGCCTAA,-0.086
6,GAACACTC,-0.0265
7,CTTTCGCC,-0.0766
8,AGTAGGTA,0.0324
9,ACAACGCT,-0.178
10,CAATCTAC,0.0081
11,GGTGCGAC,-0.234
12,CTGAGTAC,-0.0858
13,GCTCGGCA,-0.0888
14,CGTCTAAA,0.0854
15,CCGGCATA,-0.0709
16,AGTTCAAA,0.165
17,AACCCTAT,0.0771
18,AGGCCTAG,-0.193
19,CAGAATAA,0.119
20,CTGCAGAC,-0.256
21,ATAAATAG,0.254
22,GCATTATA,0.0824
23,CCAGATAC,-0.0567
24,GCTCAATA,0.0148
25,TCCTGTCA,0.0549

row,Sequence,PBM E-score
1,CTAGGAAG,0.00811
2,AAGTTCGC,0.0802
3,ACTGCCCC,-0.301
4,GGAATGAA,0.265
5,AAGTACAT,0.0939
6,TCAGTAGA,-0.0175
7,CTTTAGAC,0.0823
8,GTCTATTA,-0.0198
9,CACCCGTG,-0.162
10,CGTGGTTC,-0.0471
11,AATTCCCC,-0.0668
12,CGAACTCG,0.0597
13,AGGCGATG,-0.109
14,GAGAGGAC,-0.141
15,CCTCAGCA,-0.236
16,ACTCGCAG,0.0146
17,TTATAAAA,0.222
18,GAACTGTC,-0.124
19,TCTACTCA,0.086
20,AACTCCCC,0.0433
21,CCTATTCA,-0.114
22,CACTTGGC,-0.194
23,CCGTAATC,0.00305
24,CCGTCGTA,-0.167
25,CCTTAGAG,-0.367

row,Sequence,PBM E-score
1,GTATGGAC,0.0471
2,GGATATCA,-0.07
3,GCGCACGA,-0.00742
4,AAGACCCT,-0.0532
5,AAGGACCC,-0.358
6,ACGAGATA,-0.0352
7,GAAAATCC,0.308
8,AACAATGC,0.156
9,TCTCCACA,0.147
10,CACTGCGG,0.0493
11,CAGAGGCC,-0.356
12,GACTGATA,-0.144
13,CGGTACAC,-0.243
14,ACTAACGC,0.0783
15,AACAAGAC,0.183
16,AGCTCCGC,-0.0318
17,ACTGAACC,0.00627
18,CTGATGTC,0.139
19,GGGCATCA,-0.147
20,AACGGCGA,0.098
21,AATATCTG,0.276
22,TAGTTCCA,0.243
23,CACTGGGA,-0.0293
24,AGGGGGGA,-0.314
25,AATGGTGC,0.00744

row,Sequence,PBM E-score
1,ATTCTTCA,0.129
2,AAGGGCCT,-0.318
3,ATTTAACG,0.259
4,AATGTTGG,0.0504
5,GAAACCGC,0.0982
6,CGTAGCCC,-0.213
7,CCAATGCC,-0.253
8,ACGTATCT,-0.13
9,GCACTACA,-0.187
10,ATCGATTA,0.246
11,ATGACACC,-0.0427
12,ACTCCTAG,-0.174
13,GGGGCTGA,-0.187
14,TCGGAACA,0.387
15,AATGGACG,0.162
16,GAGCGTCC,-0.122
17,AGAGTCGC,-0.0162
18,GGATCTTA,0.0507
19,ATCATAAC,0.269
20,CCAGTAGA,-0.0815
21,CTAGAAGC,-0.117
22,AGCATTCG,-0.129
23,ACCTTAGA,-0.0616
24,AGAAGCTG,0.08
25,AGGATGCC,-0.102

row,Sequence,PBM E-score
1,ACAGATTA,-0.0636
2,AGTAGAAC,-0.0221
3,AATTAGTG,0.16
4,CCTGGCAC,-0.226
5,CTATTAAA,0.196
6,TCGTTCAA,-0.079
7,GAATCCCA,0.0577
8,CAGGGCCG,-0.182
9,AGTATAAC,-0.00437
10,CGGAGTCA,0.0128
11,CCCGGCTA,-0.207
12,GGTTAACA,0.158
13,CAACCCTC,-0.13
14,ATTGCTGC,0.0139
15,ATCTTAAC,0.154
16,CGCGCGGC,-0.0452
17,CAAAAAGC,0.0408
18,AGGTTTAG,0.0288
19,AACAATTC,0.205
20,ATTGTCCA,0.0132
21,CAGGTCTC,-0.204
22,TATCCCGA,0.0443
23,CCGCCGCC,-0.22
24,AATTGGAG,0.0437
25,GCAAGCAA,0.0036

row,Sequence,PBM E-score
1,CAAATTTA,0.237
2,CATGCGAC,0.0545
3,GAGCACAA,-0.0027
4,ACTCGTCC,-0.052
5,GCACTGGC,-0.222
6,AACGGTAG,-0.0285
7,ATGCTTAC,-0.137
8,GATCGTGC,-0.0603
9,CTTCGAAG,-0.00431
10,CACCAGAC,-0.0475
11,GAAAAGCA,-0.0682
12,AGTTTCAT,0.188
13,CCCCTACA,-0.363
14,ACGCAAAA,0.11
15,GCAGCATA,-0.0281
16,CCACCGCA,0.0272
17,TACATTCA,0.173
18,CCCGCGCA,0.0242
19,TGACGACA,0.0666
20,GGTTTTAC,-0.0499
21,CCTTCCGA,-0.0443
22,TACAGACA,0.173
